# Measurements published in the supplement of paper PMC7125110.
# ± gives the standard error. This sample is rich in variants without activity.
# B1: glmS ribozyme (parent)
# chain: AUAAAAGCGCCAGAACUACAGAAAUGUAGUUGACGAGGAGGAGGUUUAUCGAAUUUUCGGCGGAUGCCUCCAAA
# Variants of: B1
# Assay: self-cleavage kobs at 2500 uM GlcN6P; higher = faster cleavage; RNA array
# Conditions: with glucosamine-6-phosphate
# How it was run: (§1)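 Barcoded glmS ribozyme variants on sequenced MiSeq chips were transcribed in situ by E. coli RNA polymerase and tracked through a hybridised Cy3 probe at 37 °C. Glucosamine-6-phosphate (40 μM to 10 mM) in HEPES/KCl/Mg(OAc)2 buffer was flowed in, and tiles were imaged over ~14 h. Signals were normalised to baseline and to non-cleaving reference variants; per-tile medians were fit to one- or two-exponential decays to give kobs. kcat and KM came from weighted Michaelis–Menten fits across concentrations.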
row,Variant,self-cleavage kobs at 2500 uM GlcN6P [s⁻¹]
1,A33C G38A G62U,< 1e-05
2,C10G C11G A36C G38C A53C G60U,< 1e-05
3,G9C C10A G29C,< 1e-05
4,C8U U30A A33C U55A,< 1e-05
5,C11G G60C G63C,< 1e-05
6,A12U U46G C61U C71G,< 1e-05
7,C10A G38C G41U A52U,< 1e-05
8,A12G A15U G37U A42G U55A,< 1e-05
9,U30C G35C G37C,< 1e-05
10,C10G G43U U55G U57A,< 1e-05
11,G29A G43U U46A G51A,< 1e-05
12,G32U A53C U55A,5.38e-05 ± 1.8e-05
13,G32A G41A U49G,< 1e-05
14,G32C A33G U46C,< 1e-05
15,U30C G41A A48C G62C C68G,< 1e-05
16,G29U G41U G51C U55C U56G,< 1e-05
17,U30A U65C,4.68e-05 ± 1.5e-05
18,A12G G35C G38C G40C,< 1e-05
19,C10U G29U G63U,< 1e-05
20,C16U U30G G32A C68U,7.75e-05 ± 3.2e-05
21,G9U U30A G63U,< 1e-05
22,C11A U30C C34U U46A,< 1e-05
23,A14U G40C A64G,6.98e-05 ± 1.7e-05

row,Variant,self-cleavage kobs at 2500 uM GlcN6P [s⁻¹]
1,C10A A12C G51U,< 1e-05
2,C16U G40U U49C C50G C68U C71A,< 1e-05
3,A12U G41C U46G C68A,< 1e-05
4,G13U C34U G41U A53G C58G,< 1e-05
5,A12G A42U G59C G60C A64C G66A,< 1e-05
6,C11A G29C G44C,< 1e-05
7,A12G G29U C58A G59U C67A,< 1e-05
8,A33C A36U U49A U56C C61U,< 1e-05
9,A12G U31G C61U,< 1e-05
10,A33C A36C U47A,< 1e-05
11,C10G C11A G35U U46G,< 1e-05
12,A12G A15G U54G C61U A64G,< 1e-05
13,C11A A48C U49G C58A,< 1e-05
14,U30A G32U G44A U49G,< 1e-05
15,A33C A36U G37C,< 1e-05
16,U30A A36U C71A,< 1e-05
17,G26U G32A G63A C71U,< 1e-05
18,C16U G32U U46G,6.51e-05 ± 2.5e-05
19,A33U G35C C58G,< 1e-05
20,G35U A36G U45C U65G,< 1e-05
21,C8U A15C A64G,< 1e-05
22,G9C C16U G32A C67G C71U,< 1e-05
23,G13U A48U C50U A64G C70U,< 1e-05

row,Variant,self-cleavage kobs at 2500 uM GlcN6P [s⁻¹]
1,C10G A48U U49A A52U,< 1e-05
2,G13C C58G G59A,< 1e-05
3,C34A G43A U54G,< 1e-05
4,C10U A12C U30C U57A,< 1e-05
5,A33C G40A A48C G51C G60C,< 1e-05
6,C10A G32U C58G,< 1e-05
7,C8U A48G G66U,< 1e-05
8,G29A G41U G62C,< 1e-05
9,C10A G44A G59C C67G,< 1e-05
10,G13C A33C A36G G37C G44A C67G,< 1e-05
11,G9U C10A G35A G59U G60A,< 1e-05
12,C11U U45G U54A,0.000119 ± 2.7e-05
13,C16U G35U U46A U57A,< 1e-05
14,A12U G13C U54C,< 1e-05
15,G29U C61U G66U,< 1e-05
16,C16A A48U C58U,< 1e-05
17,C11G G35A G66U,< 1e-05
18,A12C U56A C58G,0.00043 ± 8.1e-05
19,A15U G35U G38U U49G U54A,< 1e-05
20,U30C G60U C71G,< 1e-05
21,C10A G38C C58G,< 1e-05
22,A15G U31A C34A,< 1e-05
23,C34U A52U U65G,< 1e-05

row,Variant,self-cleavage kobs at 2500 uM GlcN6P [s⁻¹]
1,C11A G60U C70U,< 1e-05
2,U30C G37C G38C C61U,< 1e-05
3,G13C C50U U54C,< 1e-05
4,C10U G13U A64C,< 1e-05
5,A14G G29U G40U G62A C70G,< 1e-05
6,C10U G29C G59U,< 1e-05
7,U31A C34A C71U,< 1e-05
8,U31G G37U U56G,< 1e-05
9,C34G U54C C70G,< 1e-05
10,A15G U45C C61A C68G C71A,< 1e-05
11,A33G G43A U49G,< 1e-05
12,U31C A39C C70A,< 1e-05
13,A33C G35U A42G A48G,< 1e-05
14,U30A A36C G37A G40U,< 1e-05
15,A12C G41A U69G,< 1e-05
16,C10A C16U A36G A48C,< 1e-05
17,A14G G62C G63C,< 1e-05
18,G35A G60U C68U,< 1e-05
19,G29A A42U G44U C68G,< 1e-05
20,C10G G37A C67G C70U,< 1e-05
21,C11U A33U G59A,0.000169 ± 6.1e-05
22,C16U A42C U49G U55G G59C,< 1e-05
23,C16U U30C G32U G35U U47G,< 1e-05

row,Variant,self-cleavage kobs at 2500 uM GlcN6P [s⁻¹]
1,C11G U47A C50G C70G,0.000352 ± 8.9e-05
2,A20C A48G,0.000134 ± 2.6e-05
3,G9C G44A C61A,< 1e-05
4,C10U C11U A15C C34A,< 1e-05
5,G32U G37C A52U A64U,< 1e-05
6,C11A A14C C70U,7.46e-05 ± 2.7e-05
7,A15C U31C U56C C61U,< 1e-05
8,A15U C50U U54C G59C,< 1e-05
9,U31G G44A A52C,< 1e-05
10,C8U U31A A42G G66C,< 1e-05
11,G13U G37A U54C U57A A64G,< 1e-05
12,G29C G41A C71G,< 1e-05
13,A33G A42U C70U,< 1e-05
14,G35A U54A G60U,< 1e-05
15,G29A A36G U49G C70U,< 1e-05
16,U30A U46G A53U,0.000335 ± 9.7e-05
17,A12C U30C G59A,< 1e-05
18,A12U G13U A33G A39U A48U,< 1e-05
19,C34U A39U G43U,< 1e-05
20,A14C G35U A53C U65A,< 1e-05
21,C34A G43A C50G U54C,< 1e-05
22,G29U G32C U47C C67G,< 1e-05
23,A14G G40C A52U G63A G66C,< 1e-05

row,Variant,self-cleavage kobs at 2500 uM GlcN6P [s⁻¹]
1,C10U G37C G44A C58U C61A G62A,< 1e-05
2,G35C A42G U56C G60U C70G,< 1e-05
3,C10A C11A G51U A52U,< 1e-05
4,G13A G44U U45A U57A U69C,< 1e-05
5,C10A U47A C70A,0.000334 ± 0.00015
6,C16G G43C C68A,< 1e-05
7,G9A G40U A48U,< 1e-05
8,C10G C11G U31G,< 1e-05
9,C34U U54G G63U,< 1e-05
10,C11A U30G G44U U46C U47A A48C,< 1e-05
11,U31G C34A U45G,< 1e-05
12,A12U U45G C61U,< 1e-05
13,A14U G32U A36G,< 1e-05
14,G35U G51U A53U,< 1e-05
15,A14G C34U G35A,< 1e-05
16,G35C G37C C68G,< 1e-05
17,A33C U56G,5.24e-05 ± 2.2e-05
18,A15U U30A A48U U49C,< 1e-05
19,C11G A14G G63C,< 1e-05
20,A15U G37A G41C C71A,< 1e-05
21,G35U A36G U54C,< 1e-05
22,G13U A14G A36G U55A,< 1e-05
23,C10A C34G U47C A48G U69G,< 1e-05

row,Variant,self-cleavage kobs at 2500 uM GlcN6P [s⁻¹]
1,G9U C16U G29U G59A,< 1e-05
2,A14U G29U A48U A53U G62U,< 1e-05
3,G29C G37A G43C U69A,< 1e-05
4,U30C G41U A42C,< 1e-05
5,A33G A39C U45A,< 1e-05
6,A14C C16G G32U U57C,< 1e-05
7,G35C A42U A48G,< 1e-05
8,U31C C50U A64U,< 1e-05
9,C8U C34U U46G,< 1e-05
10,C11G U31A G32C A36U U57A,< 1e-05
11,G13U A24C G59C C61U,< 1e-05
12,A33U G41C G43C U55G,< 1e-05
13,A12U G35C U46A U57A C70A,< 1e-05
14,A33C A42C A52C C68G C71A,< 1e-05
15,A15G U31C A39G U47A C50U,< 1e-05
16,G32A C50A A52U G60U G62U,< 1e-05
17,C34U G40A G41C A48C A52G,< 1e-05
18,A15U G35U C67G,< 1e-05
19,U30C G35U G51A A53U U56C,< 1e-05
20,C10A G37C G40C G43U,< 1e-05
21,G13U A39U U56A,0.000101 ± 2e-05
22,C11U G43U C70G,< 1e-05

# Variants of: B1
# Assay: self-cleavage kobs at 10000 uM GlcN6P; higher = faster cleavage; RNA array
# Conditions: with glucosamine-6-phosphate
# How it was run: as §1
row,Variant,self-cleavage kobs at 10000 uM GlcN6P [s⁻¹]
1,C11G G60C G63C,< 1e-05
2,U30A U65C,8.23e-05 ± 1.6e-05
3,C16U U30G G32A C68U,0.000157 ± 5.1e-05
4,A12U G41C U46G C68A,< 1e-05
5,A12G U31G C61U,< 1e-05
6,U30A A36U C71A,< 1e-05
7,C16U G32U U46G,0.000138 ± 2.5e-05
8,G35U A36G U45C U65G,< 1e-05
9,C11U U45G U54A,0.000152 ± 3.4e-05
10,A15G U31A C34A,< 1e-05
11,C11U A33U G59A,0.000262 ± 5.4e-05
12,C10U G37C G44A C58U C61A G62A,< 1e-05
13,C16G G43C C68A,< 1e-05
14,A12U U45G C61U,< 1e-05
15,A33C U56G,5.35e-05 ± 1e-05
16,A14U G29U A48U A53U G62U,< 1e-05
17,C11G U31A G32C A36U U57A,< 1e-05
18,U30C G35U G51A A53U U56C,< 1e-05
19,C10A G37C G40C G43U,< 1e-05
